For one data set, the system named is Jeko-1. Kind of data set: Cytotoxicity in vitro (CellTiter-Glo viability), Jeko-1. It is filed as cell-based, human. Particulars: Jeko-1 (MCL), 72 hours; read-out: EC50 (nM), cytotoxicity in vitro.
The next data set relates to MDA-MB-468. Kind of data set: Cytotoxicity in vitro (CellTiter-Glo viability), MDA-MB-468. Particulars: read-out: EC50 (nM), cytotoxicity in vitro; MDA-MB-468 (TNBC), 72 hours. As to the method:
ROR1 binding by these conjugates was tested in cell culture to define the potency of various linker-cytotoxic agent combinations. Three different types of cancer cell lines were tested: B-lymphoma cell-lines TMD-8, HBL-1, and DOHH2; triple negative breast cancer cell lines HCC1187, MDA-MB-468, Bt549; and ovarian cancer cell lines A2008, TOV112D, JHOM1, and SKOvr3.
(§1) Cells were cultured in log phase growth and distributed into 96-well plates. Each cell line was plated at a slightly different cell density, ranging from 5×10^3 to 50×10^4 cells/well. Cells in duplicate were incubated with 3-fold serial dilution of a particular immunoconjugate (10, 3.33, 1.11, 0.37, 0.12, 0.041, 0.014, and 0.0045 μM) for 72 hours at 37° C. and 5% CO2. After treatment, cells were incubated with an equal volume of CellTiter-Glo® reagent (Promega Inc.) for 15 minutes at room temperature and viability was determined by a luminometer. Curves and EC50 values were generated in GraphPad Prism using a sigmoidal dose response non-linear regression fit.
(§2) Cells were grown and distributed into 96-well plates as described in Example 5. Cells in duplicate were incubated with 3-fold serial dilution of a particular immunoconjugate (660, 220, 73.3, 24.4, 8.14, 2.71, 0.91, and 0.3 nM) for 72 hours at 37° C. and 5% CO2. In some experiments, cells were incubated with an immunoconjugate for 96 hours instead of 72 hours (values highlighted with “*”). After treatment, cell viability was determined as described in Example 5. Cell surface ROR1 expression was assessed by quantitative flow cytometry and ROR1 expression was characterized as MFI>30 or MFI<30 (MFI: mean fluorescent intensity).

A further data set has as its system Mec-ROR. Briefly: Cytotoxicity in vitro (CellTiter-Glo viability), Mec-ROR. Particulars: read-out: EC50 (nM), cytotoxicity in vitro; Mec-ROR (CLL), 72 hours. The procedure: as §1, §2
(§3) The MEC1 cell line, which is derived from B-chronic lymphocytic leukemia in prolymphocytoid transformation, was transfected with either an expression vector encoding human ROR1 or a control vector, and stable cell lines were created using selection media containing G418.
For orientation: In ATP-based viability assays light output follows the ATP content of the culture.

Data set [1] has as its target T1, cell surface ROR1 on Jeko-1 cells (Homo sapiens, UniProt Q01973).
T1 construct: The Jeko-1 cell line, from mantle cell lymphoma, is a suspension cell line; host or cells: Jeko-1 (human mantle cell lymphoma)
Kind of data set: Cell surface ROR1 expression during internalization, Jeko-1 cells. Format: cell-based. Particulars: up to 4 hours. The procedure:
Internalization of antibodies was measured using pulse-chase approaches that detected non-internalized, cell surface antibody at various time points (2, 5, 10, 15, 20, 30, 60, 120 and 240 minutes). In this study, in addition to measuring non-internalized cell surface antibody, the expression of ROR1 on the cell surface was quantitated either by (1) re-staining with Ab1 and a secondary antibody or (2) by using a second, labeled anti-ROR1 antibody that recognizes an epitope distinct from that of Ab1.
For the first approach, internalization of Ab1 on Jeko-1 cells was performed as described in Example 3 (one sample was processed at each time point to quantitate antibody remaining on the cell surface). Additionally, a second sample at each time point was rapidly re-stained using saturating levels of Ab1 (30 μg/mL) while maintaining the cells on ice. Subsequently, the cells were washed and surface antibody was quantitated using the same secondary antibody used for internalization measurements.
An alternative approach to measuring cell surface ROR1 expression in conjunction with Ab1 internalization studies was tested. Specifically, cell surface ROR1 expression was quantitated at 0, 0.5, 1, 2, and 4 hours by staining cells directly with a labeled anti-ROR1 antibody that binds an epitope distinct from that of Ab1.

The test system of a further data set is MCF-7. Briefly: Cytotoxicity in vitro (CellTiter-Glo viability), MCF-7. Format: cell-based, human. As to conditions: MCF-7 (ER+/PR+/HER2− Breast), 72 hours.
For another data set, the system named is Mino. Kind of data set: Cytotoxicity in vitro (CellTiter-Glo viability), Mino. Format: cell-based, human. Particulars: Mino (MCL), 72 hours.
A further data set has as its system Mec-vector. Kind of data set: Cytotoxicity in vitro (CellTiter-Glo viability), Mec-vector. Particulars: read-out: EC50 (nM), cytotoxicity in vitro; Mec-vector (CLL), 72 hours. As to the method:
as §1, §2, §3

Another data set deals with Jeko-1 MCL xenograft. Kind of data set: Jeko-1 human MCL xenograft model (study 7). Format: in vivo, mouse. Particulars: 1 mg/kg ADC-N, ADC-P, ADC-R; 5 mg/kg ADC-A, ADC-L, ADC-M, ADC-S, ADC-T; IV Q4D. As to the method: Jeko-1 (MCL) cells were engrafted subcutaneously into mice. When tumor size reached 100 mm^3, the mice were randomized into nine groups, 9 mice/group. The groups were vehicle control; 1 mg/kg ADC-N, ADC-P or ADC-R; or 5 mg/kg ADC-A, ADC-L, ADC-M, ADC-S, or ADC-T. The mice were dosed IV q4d.

The next data set has as its system MDA-MB-231. Briefly: Cytotoxicity in vitro (CellTiter-Glo viability), MDA-MB-231. Format: cell-based, human. As to conditions: MDA-MB-231 (TNBC), 72 hours.
A further data set has as its system H460. Briefly: Cytotoxicity in vitro (CellTiter-Glo viability), H460. Format: cell-based, human. As to conditions: H460 (NSCLC), 72 hours.

T1 sequence (Q01973 30-937): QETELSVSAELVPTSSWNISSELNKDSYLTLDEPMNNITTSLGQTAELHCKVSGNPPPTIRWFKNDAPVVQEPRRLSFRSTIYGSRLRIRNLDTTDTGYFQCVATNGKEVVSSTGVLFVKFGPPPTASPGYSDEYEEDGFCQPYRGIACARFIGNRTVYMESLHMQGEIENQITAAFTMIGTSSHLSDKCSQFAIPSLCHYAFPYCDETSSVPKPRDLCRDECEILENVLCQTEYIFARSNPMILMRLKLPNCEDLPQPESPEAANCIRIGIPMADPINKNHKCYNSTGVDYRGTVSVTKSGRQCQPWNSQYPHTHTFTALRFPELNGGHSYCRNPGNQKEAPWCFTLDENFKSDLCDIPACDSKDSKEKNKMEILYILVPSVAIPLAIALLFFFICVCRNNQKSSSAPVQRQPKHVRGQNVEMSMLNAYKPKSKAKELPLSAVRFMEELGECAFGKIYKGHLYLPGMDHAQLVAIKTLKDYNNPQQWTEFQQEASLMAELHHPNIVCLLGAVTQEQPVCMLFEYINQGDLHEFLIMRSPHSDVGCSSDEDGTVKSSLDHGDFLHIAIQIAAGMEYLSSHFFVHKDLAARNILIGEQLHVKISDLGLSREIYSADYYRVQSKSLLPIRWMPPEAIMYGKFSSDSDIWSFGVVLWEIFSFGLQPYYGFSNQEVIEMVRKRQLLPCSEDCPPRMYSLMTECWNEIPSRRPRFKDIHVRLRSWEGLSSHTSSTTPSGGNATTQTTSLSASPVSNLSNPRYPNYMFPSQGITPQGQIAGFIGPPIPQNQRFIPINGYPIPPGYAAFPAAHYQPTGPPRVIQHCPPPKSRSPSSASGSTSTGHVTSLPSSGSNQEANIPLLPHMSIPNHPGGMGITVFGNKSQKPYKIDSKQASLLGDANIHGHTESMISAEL

B1: ADC-M: Ab1 conjugated via MAL-Phe-C4-VC-PAB to MMAE (conjugate)
heavy: QVQLQESGPGLVKPSQTLSLTCTVSGYAFTAYNIHWVRQAPGQGLEWMGSFDPYDGGSSYNQKFKDRLTISKDTSKNQVVLTMTNMDPVDTATYYCARGWYYFDYWGHGTLVTVSS[skipping human IgG1 constant region]
light: DIVMTQTPLSLPVTPGEPASISCRASKSISKYLAWYQQKPGQAPRLLIYSGSTLQSGIPPRFSGSGYGTDFTLTINNIESEDAAYYFCQQHDESPYTFGEGTKVEIKRTVAAPSVFIFPPSDEQLKSGTASVVCLLNNFYPREAKVQWKVDNALQSGNSQESVTEQDSKDSTYSLSSTLTLSKADYEKHKVYACEVTHQGLSSPVTKSFNRGEC
Regarding B1, the EC50 in the data set with Jeko-1 was found to be 112 nM; in the data set with MDA-MB-468, 53.1 nM; with Mec-ROR, 170 nM; in the data set with MCF-7 it was 164 nM; with Mino it was 15.8 nM; in the data set with Mec-vector, 569 nM. Further, in data set [1], the “cell surface ROR1 expression during treatment” value is on record as “ROR1 expression was maintained, or slightly increased”. In addition, in the data set on Jeko-1 MCL xenograft, the “tumor growth / average tumor size (interim results, day 14)” value was “Significant tumor regression”.

B2: ADC-P: Ab1 conjugated via MAL-Phe-C4-VC-PAB-DMEA to PNU-159682 (conjugate)
heavy: B1 heavy
light: B1 light
For the molecule B2, the EC50 with Jeko-1 was 2.4 nM; in the data set on MDA-MB-468, 10.4 nM; in the data set with MDA-MB-231, 24.7 nM; with Mec-ROR, 10.4 nM; in the data set with MCF-7, 30.9 nM; in the data set on H460, 39.6 nM. Further, the EC50 with Mino was 1.2 nM; in the data set with Mec-vector it was 30.3 nM. For the same molecule, in data set [1], the “cell surface ROR1 expression during treatment” value is “ROR1 expression was maintained, or slightly increased”. In addition, the “tumor growth / average tumor size (interim results, day 14)” value in the data set with Jeko-1 MCL xenograft is “inhibition of tumor growth”.
